Laboratory results from PMC4336329 (PLoS ONE, 2015).
About 14,000 (4.5%) of roughly 310,000 compounds showed an effect of 50% or more. Effects have a minus sign here. This is one part of the list.

Target: human ether-à-go-go-related gene (hERG) potassium channel (human, UniProt Q12809)
Assay: primary screen, population patch clamp on CHO cells stably expressing hERG
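Also: peak tail current of the secondary pulse compared with the same well before compound.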

Sequence of human ether-à-go-go-related gene (hERG) potassium channel (Q12809 whole entry, looked up): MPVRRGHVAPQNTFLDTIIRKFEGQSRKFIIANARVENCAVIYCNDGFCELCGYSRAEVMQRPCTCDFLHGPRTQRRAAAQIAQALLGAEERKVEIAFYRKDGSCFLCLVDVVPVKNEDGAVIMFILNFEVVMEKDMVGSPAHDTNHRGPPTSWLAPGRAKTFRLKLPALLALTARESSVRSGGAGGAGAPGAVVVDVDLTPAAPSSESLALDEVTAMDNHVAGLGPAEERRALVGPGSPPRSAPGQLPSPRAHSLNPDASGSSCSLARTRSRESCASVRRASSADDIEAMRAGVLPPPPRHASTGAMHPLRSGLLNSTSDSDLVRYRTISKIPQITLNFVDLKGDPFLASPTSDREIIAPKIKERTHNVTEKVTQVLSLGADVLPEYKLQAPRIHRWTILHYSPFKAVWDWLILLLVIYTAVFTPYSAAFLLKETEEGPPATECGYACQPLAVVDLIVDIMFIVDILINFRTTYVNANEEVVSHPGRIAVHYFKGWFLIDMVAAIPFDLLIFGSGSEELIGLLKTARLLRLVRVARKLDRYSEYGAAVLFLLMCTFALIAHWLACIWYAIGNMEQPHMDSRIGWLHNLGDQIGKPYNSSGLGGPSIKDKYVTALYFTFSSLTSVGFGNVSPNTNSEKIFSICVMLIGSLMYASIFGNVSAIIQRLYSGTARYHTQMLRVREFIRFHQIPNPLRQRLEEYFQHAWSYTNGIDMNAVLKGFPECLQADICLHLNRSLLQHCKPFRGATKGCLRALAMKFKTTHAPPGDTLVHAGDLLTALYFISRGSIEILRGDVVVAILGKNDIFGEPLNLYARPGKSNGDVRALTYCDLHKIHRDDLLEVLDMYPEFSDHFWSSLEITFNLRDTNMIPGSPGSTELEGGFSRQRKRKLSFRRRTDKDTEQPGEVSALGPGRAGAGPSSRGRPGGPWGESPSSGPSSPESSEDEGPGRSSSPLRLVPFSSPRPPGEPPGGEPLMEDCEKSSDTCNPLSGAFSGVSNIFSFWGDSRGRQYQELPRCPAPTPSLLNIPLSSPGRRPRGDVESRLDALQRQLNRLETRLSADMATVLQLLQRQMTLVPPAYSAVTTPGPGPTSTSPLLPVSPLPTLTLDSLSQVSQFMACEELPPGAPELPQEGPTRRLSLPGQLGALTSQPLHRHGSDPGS

Compound	hERG current change (%, negative = inhibition) at 10uM [%]
Cc1ccc(C)c(NS(=O)(=O)c2ccc(NC(=O)CSc3ccc(Cl)cc3)cc2)c1	17.8
COC(=O)C1=NN(C(=O)c2cccc(Br)c2)C(O)(c2ccc(Cl)cc2)C1 (centres unmarked)	13.4
Cc1ccc(S(=O)(=O)NC(CC(=O)N2CCC3(CC2)OCCO3)c2ccco2)cc1 (centres unmarked)	3.51
O=Cc1coc2ccc3ccccc3c2c1=O	14.5
COc1ccc(-c2c(-c3ccc(O)cc3O)n[nH]c2C(F)(F)F)cc1	4.86
CN1C(=O)C(CC(=O)NCC2CCCCC2)SC1=Nc1ccccc1 (centres unmarked)	2.41
COc1cccc(COc2ccccc2C2Nc3ccc(Br)cc3C(=O)N2NC(=O)c2ccncc2)c1 (centres unmarked)	-4.31
COc1cccc(-c2cc(C(=O)NCc3cccs3)no2)c1	18
Cc1ccc(S(=O)(=O)NCCC(=O)NCc2ccc3c(c2)OCO3)cc1C	-11.6
CC(NC(=O)c1cnc2n(c1=O)CCS2)c1ccccc1 (centres unmarked)	3.42
CC(C)CCNC(=O)CN(Cc1ccccc1Cl)C(=O)CCC(=O)Nc1ccccn1	-10.1
Cc1ccc2nc(NS(=O)(=O)c3cn(C)nc3C)sc2c1	0.0677
Cc1cc(NC(=S)NC(=O)/C=C/c2ccc(S(=O)(=O)N3CCOCC3)cc2)ccc1Br	17.8
O=C(c1coc2ccccc2c1=O)N1CCN(c2cccc(C(F)(F)F)c2)CC1	-11.2
CN(CC(N)=O)S(=O)(=O)c1ccc(F)cc1	-15.7
Cc1cc(NC(=O)c2cc(CC(C)C)on2)no1	7.66
Nc1nc2c(ncn2CCC(CO)CO)c(=O)[nH]1	-2.83
COc1ccc(N2CCN(C(=O)C(NC(=O)c3c(F)cccc3F)C(C)C)CC2)cc1 (centres unmarked)	10.5
Cc1ccc(Cl)cc1NS(=O)(=O)c1cc2[nH]c(=O)c(=O)[nH]c2cc1C	23.6
COC(=O)COc1ccc2c(-c3cccc([N+](=O)[O-])c3)cc(=O)oc2c1	-31.8
CCC(=O)Nc1ccc(C(=O)CSc2nnc(-c3cccnc3)o2)cc1	0.499
CCSC1=C(C#N)C(c2ccc(OC)c(OC)c2)CC(=O)N1 (centres unmarked)	5.77

Compound	hERG current change (%, negative = inhibition) at 10uM [%]
CCc1nnc(NC(=O)c2csc3c2CCC(C)C3)s1 (centres unmarked)	27.7
COc1ccc(Cl)cc1C(=O)Nc1ccc(NC(=O)C(C)C)cc1	213
CCN1CCN(C(=O)c2nn(-c3ccc(OC)cc3)c(=O)c3c2c2ccccc2n3C)CC1	-4.67
CC(C)NC(=O)c1ccccc1NC(=O)CCS(=O)(=O)Cc1ccccc1	0.824
CC(C)c1nnc(NC(=O)CSc2nc3ccccc3[nH]2)s1	3.98
CC(=O)c1sc(NC(=O)c2ccccc2F)nc1-c1ccccc1	18.7
O=C(CNc1n[nH]c(=O)[nH]c1=O)N/N=C/C1CC=CCC1 (centres unmarked)	1.91
COc1ccc(NC(=O)CSc2nnc(-c3ccccc3Cl)n2Cc2ccco2)c(OC)c1	-29.2
COc1ccc(OC)c(CN2CCC(CNC(=O)Nc3cccc(Cl)c3)CC2)c1	-60.8
Cc1noc(C)c1COc1ccccc1C(=O)N1CCN(S(=O)(=O)c2cccc([N+](=O)[O-])c2)CC1	-31.3
Cc1ccc(Cn2c(O)c(N=NC(=S)Nc3ccccc3F)c3ccccc32)cc1	14.1
COc1ccc(CCNC(=O)c2oc3ccccc3c2C)cc1	-22.9
Cc1ccc(C(=O)Nc2ccccc2N2CCCCC2)cc1	-23.7
COc1cc2[nH]c(=S)nc(NCCC(C)C)c2cc1OC	-16.2
Cn1ccnc1C(=O)c1ccc(S(=O)(=O)N2CCCC2)cc1	33.9
CCn1c(CNC(=O)c2ccco2)nnc1SCC(=O)Nc1cc(C)c(C)cc1Br	-16.6
Cl.OC(c1ccc(F)cc1)(C1CCCCC1)C(CN1CCOCC1)c1ccccc1 (centres unmarked)	12.1
COCCNC(=O)C1CC(c2cccc(OC)c2)=NO1 (centres unmarked)	-0.681
Cc1cc(C)c(S(=O)(=O)N2CCCCC2C(=O)O)c(C)c1 (centres unmarked)	20.4
COc1cccc2c(=O)n(CC(=O)NCCc3ccccc3)ccc12	7.56
CC(=O)c1cccc(NC(=S)N2CCC(Cc3ccccc3)CC2)c1	17.6
CCOc1ccc(S(=O)(=O)Nc2ccc(C(=O)NCC(c3ccccc3)N(C)C)cc2)cc1 (centres unmarked)	-44.9
